{"source": "ChEMBL document CHEMBL4888484", "about": "“Replenishing the malaria drug discovery pipeline: Screening and hit evaluation of the MMV Hit Generation Library 1 (HGL1) against asexual blood stage Plasmodium falciparum ,using a nano luciferase reporter read-out” (2022)", "note": "In all, about 150,000 compounds went through this assay and about 540 (0.36%) showed an effect of 50% or more. The list shows a part of the results.", "data": [{"system": "Plasmodium falciparum", "assay": "Primary screen in NF54 nanoGlo assay, in single point, at 2uM, 72h; a lower Z score goes with more inhibition", "format": "functional, Erythrocyte", "conditions": "timepoint 72 hour", "units": {"% Inhibition": "%"}, "values": [{"smiles": "CCCOc1cccc(CN(C)[C@H]2CCN(S(C)(=O)=O)C2)c1", "% Inhibition": 2, "Z score": -0.22}, {"smiles": "CC1(C2CCN(c3cc(-n4ccnc4)ncn3)CC2)OCCO1", "% Inhibition": -6, "Z score": 0.87}, {"smiles": "COc1cccc(NS(=O)(=O)c2ccc(-c3[nH]ncc3C(=O)N3CCCCC3)o2)c1", "% Inhibition": -16, "Z score": 1.85}, {"smiles": "O=C(c1cc(-c2ccco2)n[nH]1)N1CC[C@H](c2ncon2)C1", "% Inhibition": -17, "Z score": 3.14}, {"smiles": "CC(NC(=O)C(Cc1ccccc1)NS(=O)(=O)c1ccccc1F)c1ccc2c(c1)OCCO2", "note": "(centres undefined)", "% Inhibition": 4, "Z score": -0.58}, {"smiles": "CCOC(=O)c1[nH]c(C2CCN(c3nccs3)CC2)nc1C", "% Inhibition": -1, "Z score": 0.1}, {"smiles": "O=C(NCC1COCCO1)NC[C@@H]1Cc2ccccc2CO1", "note": "(some centres undefined)", "% Inhibition": -20, "Z score": 2.12}, {"smiles": "Cc1sc2ccccc2c1CN1C[C@@H]2C(=O)NC[C@]2(C(=O)O)C1", "% Inhibition": -3, "Z score": 0.58}, {"smiles": "CCC1(CC)CNC(=O)[C@H]1NC(=O)c1ccnnc1C", "% Inhibition": 7, "Z score": -0.81}, {"smiles": "COc1ccc2c(c1)[C@@H](NC(=O)c1cc3n(n1)CCNC3)CC(C)(C)O2", "% Inhibition": 7, "Z score": -1.02}, {"smiles": "N#Cc1c2n(c3c(=O)n(Cc4ccccc4Cl)cnc13)CCCC2", "% Inhibition": -13, "Z score": 2.47}, {"smiles": "O=S(=O)(Nc1ccc(Cl)cc1)c1cnn(-c2ccc(C(F)(F)F)cn2)c1", "% Inhibition": -2, "Z score": 0.27}, {"smiles": "COc1cccc2c1NC(=O)[C@@H]1C[C@@H](N(C)C)CN1C2=O", "% Inhibition": -17, "Z score": 2.33}, {"smiles": "COc1ccccc1N1CCN(C(=O)c2cc3ccsc3n2Cc2ccccc2F)CC1", "% Inhibition": -11, "Z score": 1.52}, {"smiles": "Cc1cc(C)nc(O[C@H]2CC[C@H](NC(=O)c3cccnc3)CC2)n1", "% Inhibition": -7, "Z score": 0.85}, {"smiles": "CCN(Cc1noc(CC(C)C)n1)C(=O)c1cc(C)n2nc(C)cc2n1", "% Inhibition": -5, "Z score": 0.94}, {"smiles": "Cc1cc(C2(c3cc(C)c(NC(=O)CN4CCOCC4)c(C)c3)CCCCC2)cc(C)c1NC(=O)CN1CCOCC1", "% Inhibition": 9, "Z score": -1.14}, {"smiles": "C[C@@H](c1ccccc1)N(CC(=O)NCC#N)CC1CCC1", "% Inhibition": -6, "Z score": 0.91}, {"smiles": "O=C(NCCc1cnccn1)N1C2C=C(c3ccccc3)CC1CC2", "note": "(centres undefined)", "% Inhibition": -7, "Z score": 0.83}, {"smiles": "O=C1C[C@H](c2nc(-c3ccc4[nH]cnc4c3)no2)CN1C1CC1", "% Inhibition": -12, "Z score": 2.27}, {"smiles": "CC1(C)C[C@]1(C(=O)N1CCC(c2cc(O)ncn2)CC1)c1ccccc1F", "% Inhibition": -10, "Z score": 1.03}, {"smiles": "Cc1ccc(C(N)=O)cc1-c1ccc(C(=O)N(C)[C@H]2CCOC(C)(C)C2)cc1", "% Inhibition": -9, "Z score": 1.62}, {"smiles": "Cc1nccn1CCC(=O)NC[C@H](C)Oc1cccnc1", "% Inhibition": -7, "Z score": 0.93}, {"smiles": "C=CCO[C@@H]1CCN2C(=O)c3cc(-c4cccc(C(F)(F)F)c4)ccc3NC(=O)[C@H]12", "% Inhibition": 2, "Z score": -0.32}, {"smiles": "COCc1nc(C(=O)Nc2nc(-c3cnn(C)c3)cs2)cs1", "% Inhibition": 29, "Z score": -3.26}, {"smiles": "Cc1c(C(=O)N(C)CC(C)C)cnn1-c1nccc(-c2ccc3c(c2)OCO3)n1", "% Inhibition": 4, "Z score": -0.49}, {"smiles": "CC(C)c1nnc2ccc(NS(=O)(=O)c3ccc4c(c3)CC(=O)N4C)cn12", "% Inhibition": 2, "Z score": -0.25}, {"smiles": "Cc1cccc(-n2nc(Cc3ccccc3)n(CC(=O)NC3CC3)c2=O)c1", "% Inhibition": -11, "Z score": 2.17}, {"smiles": "CCN([C@H]1CCOC1)S(=O)(=O)c1ccc2c(c1)C(=O)CCC2", "% Inhibition": -15, "Z score": 1.68}, {"smiles": "NS(=O)(=O)c1ccc(F)c(CNC(=O)C(C2CC2)C2CC2)c1", "% Inhibition": 5, "Z score": -0.65}, {"smiles": "O=C(NCCc1cc(F)cc2c1OCOC2)[C@@H]1CC(c2ccccc2)=NO1", "% Inhibition": 2, "Z score": -0.22}, {"smiles": "O=C(C1CCCO1)N1CCCN(C2CCN(Cc3ccc(F)cc3)C2=O)CC1", "note": "(centres undefined)", "% Inhibition": 0, "Z score": -0.03}, {"smiles": "FC(F)(F)c1cc(-c2ccccc2)nc(N2CCCC2)n1", "% Inhibition": -5, "Z score": 0.64}, {"smiles": "Cc1cc(C)n(NC(=O)[C@@H]2COc3ccccc3O2)c(=O)c1", "% Inhibition": -9, "Z score": 1.21}, {"smiles": "Cc1ccccc1C(=O)N1[C@H](C(=O)NC2CC2)COC12CCN(C(=O)c1ccc(F)cc1)CC2", "% Inhibition": -2, "Z score": 0.23}, {"smiles": "COc1ccc(NC(=O)Cn2nc3nc(N4CCC[C@H](C)C4)ccn3c2=O)cc1OC", "% Inhibition": 2, "Z score": -0.38}, {"smiles": "CCOc1ncccc1C(=O)NC1CCN(c2cc3c(nn2)CCCC3)CC1", "% Inhibition": -18, "Z score": 3}, {"smiles": "Cc1c(Cl)cccc1CNC(=O)CCCN1CCCC1=O", "% Inhibition": -4, "Z score": 0.61}, {"smiles": "O=C(c1cc2ccccc2[nH]1)N1CCC2(CC1)C[C@@H](Cc1cccc(F)c1)CCO2", "% Inhibition": -9, "Z score": 1.28}, {"smiles": "CC[C@@H](c1ccnn1C)n1cnc2cnccc2c1=O", "% Inhibition": -8, "Z score": 1.27}, {"smiles": "Cc1nc2ccccn2c1CN1CCC(CNC(=O)[C@@H]2CCc3ccccc32)CC1", "% Inhibition": 2, "Z score": -0.48}, {"smiles": "Cn1nncc1C(=O)NC1(c2ccc(Br)cc2)CCCC1", "% Inhibition": 2, "Z score": -0.36}, {"smiles": "CCc1nc2nnc3c(=O)n(-c4ccccc4C)ccc3n2n1", "% Inhibition": 3, "Z score": -0.35}, {"smiles": "Fc1cccc2c1CCC[C@@H]2NCc1cncnc1", "% Inhibition": 2, "Z score": -0.3}, {"smiles": "Cc1ccc(C2c3cc(OCC(=O)NCC4CCCO4)ccc3CCN2C(=O)C2CCCC2)cc1", "note": "(centres undefined)", "% Inhibition": -17, "Z score": 1.92}, {"smiles": "COCCc1noc(Cn2c(Cl)cccc2=O)n1", "% Inhibition": -9, "Z score": 0.88}, {"smiles": "C[C@@H](c1nc(C2(c3ccc(F)cc3)CCC2)no1)n1cncn1", "% Inhibition": 2, "Z score": -0.42}, {"smiles": "CN(CC1(CO)CCCC1)C(=O)Nc1cccc(Cl)c1F", "% Inhibition": 1, "Z score": -0.16}, {"smiles": "CCCCS(=O)(=O)NCCCc1cc(C)no1", "% Inhibition": -15, "Z score": 2.26}, {"smiles": "CC(C)NC(=O)CN(C)CC(=O)Nc1cc(C2CCCC2)nn1-c1ccccc1", "% Inhibition": 1, "Z score": -0.16}, {"smiles": "CC(CC1CCCN1C(=O)OC(C)(C)C)NCCNC(=O)c1ccccc1Cl", "note": "(centres undefined)", "% Inhibition": -8, "Z score": 0.73}, {"smiles": "COc1cccc(C(=O)N2CCC3(CC2)C[C@@H](OCc2ccccc2)CCO3)c1", "% Inhibition": 31, "Z score": -1.12}, {"smiles": "COc1ccc(C(=O)Nc2ccc3c(c2)C(=O)N2CCC[C@H]2C(O)=N3)cc1OC", "% Inhibition": 23, "Z score": -3.48}, {"smiles": "CC(C)(NC(=O)c1nc2ccccc2cc1C1CC1)c1nccs1", "% Inhibition": -15, "Z score": 2.49}, {"smiles": "COc1cc(Br)cc(C)c1NC(=O)CCS(C)(=O)=O", "% Inhibition": -4, "Z score": 0.49}, {"smiles": "CCOc1ccc(CNC(=O)C2CCN(c3ccc(-c4cccc(C)c4)nn3)CC2)cc1OCC", "% Inhibition": -10, "Z score": 1.29}, {"smiles": "CCO[C@H]1COC[C@@H]1NC(=O)Cc1cccs1", "% Inhibition": 1, "Z score": -0.18}, {"smiles": "CCOc1ccc(S(=O)(=O)N2CCc3cc(S(=O)(=O)N4CCCC4)ccc32)cc1OCC", "% Inhibition": -11, "Z score": 1.69}, {"smiles": "CC(C)(C)OC(=O)NCCc1cc(=O)[nH][nH]1", "% Inhibition": -5, "Z score": 0.68}, {"smiles": "CC[C@@H](Cc1ccccc1)N(C)S(C)(=O)=O", "% Inhibition": 1, "Z score": -0.16}, {"smiles": "CCN1CCN(C(=O)Cn2nc(-c3ccccc3)c3ccccc32)CC1", "% Inhibition": -4, "Z score": 0.68}, {"smiles": "CC(C)Cc1nsc(NCCS(N)(=O)=O)n1", "% Inhibition": -12, "Z score": 1.61}, {"smiles": "CN1C[C@@H](C(=O)N2CCC(c3nccn3CC3CC3)CC2)NC1=O", "% Inhibition": 3, "Z score": -0.57}, {"smiles": "COc1ccccc1CNCC1CN(C(=O)OC(C)(C)C)C1", "% Inhibition": -1, "Z score": 0.16}, {"smiles": "COC(=O)c1cn(CCNC(=O)Nc2ccc(N(C)C)cn2)nn1", "% Inhibition": 27, "Z score": -3.9}, {"smiles": "CC(C)Cc1noc([C@H](C)NC(=O)N2CCNC(=O)CC2)n1", "% Inhibition": 9, "Z score": -1.53}, {"smiles": "Cn1cc(S(=O)(=O)N2CCO[C@H](C(=O)C3CC3)C2)cn1", "% Inhibition": -3, "Z score": 0.42}, {"smiles": "CC(NCC(c1ccco1)N1CCCC1)c1cc2n(n1)CCC2", "note": "(centres undefined)", "% Inhibition": -5, "Z score": 0.63}, {"smiles": "O=C(NC[C@H]1CCCS1(=O)=O)c1cc(F)c[nH]1", "% Inhibition": 11, "Z score": -1.27}, {"smiles": "CCOc1ccccc1NC(=O)Cn1cccc1-c1nnc(C2CC2)o1", "% Inhibition": -14, "Z score": 2.46}, {"smiles": "C[C@@H](CC(=O)N1CC[S+]([O-])CC1)c1cccc(C(F)(F)F)c1", "% Inhibition": -11, "Z score": 1.14}, {"smiles": "Cc1cc2c(N3CCC(NCc4noc(C5CCC5)n4)CC3)ncnc2s1", "% Inhibition": -11, "Z score": 1.39}, {"smiles": "COc1cccc(NC(=O)N2CCN(C(=O)CN3CCc4sccc4C3c3cccc(F)c3)CC2C)c1", "note": "(centres undefined)", "% Inhibition": 3, "Z score": -0.4}, {"smiles": "O=C(CCc1nnc(C2CCCCC2)o1)NCc1ccc2c(c1)OCO2", "% Inhibition": -4, "Z score": 0.64}, {"smiles": "Cc1c(CN2CCN(C3CCN(C)CC3)[C@@H](CCO)C2)[nH]c2c(Cl)cccc12", "% Inhibition": 13, "Z score": -2.05}, {"smiles": "Cc1ccn2c(NC(=O)c3cccc(S(=O)(=O)N4CCOCC4)c3)c(-c3cccs3)nc2c1", "% Inhibition": -11, "Z score": 1.51}, {"smiles": "O[C@H](COc1ccc(Br)cc1)CN(Cc1ccccc1)Cc1ccccc1", "% Inhibition": -6, "Z score": 0.76}, {"smiles": "O=C(c1ccc(-n2cccn2)nc1)N1CCO[C@H](c2ccccc2)CC1", "% Inhibition": 4, "Z score": -0.47}, {"smiles": "CN(C(=O)c1cc(=O)[nH]c2ccccc12)[C@H]1CCCN(CCCc2ccccc2)C1", "% Inhibition": 6, "Z score": -0.88}, {"smiles": "CCN(CC)CCNCc1ccc(C)s1", "% Inhibition": -12, "Z score": 1.33}, {"smiles": "CCn1nc2n(c1=O)CCN(C(=O)c1ccnnc1)[C@@H]2c1ccccc1", "% Inhibition": -10, "Z score": 1.59}, {"smiles": "CCOC(=O)N1CCC2(CC1)N=C(c1ccccc1O)C[C@@H](c1ccccc1O)N2", "% Inhibition": -12, "Z score": 1.38}]}]}
